These results are taken from publication PMC3597591.

Amino acid sequences for entries named in this document (tags omitted).
UniProt P62258: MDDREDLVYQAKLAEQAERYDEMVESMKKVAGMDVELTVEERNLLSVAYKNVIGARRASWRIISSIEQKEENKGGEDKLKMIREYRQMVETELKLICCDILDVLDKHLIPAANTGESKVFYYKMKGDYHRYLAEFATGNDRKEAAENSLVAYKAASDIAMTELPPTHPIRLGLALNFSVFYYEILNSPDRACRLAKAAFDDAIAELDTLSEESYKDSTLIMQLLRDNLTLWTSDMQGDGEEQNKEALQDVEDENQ
UniProt P62260: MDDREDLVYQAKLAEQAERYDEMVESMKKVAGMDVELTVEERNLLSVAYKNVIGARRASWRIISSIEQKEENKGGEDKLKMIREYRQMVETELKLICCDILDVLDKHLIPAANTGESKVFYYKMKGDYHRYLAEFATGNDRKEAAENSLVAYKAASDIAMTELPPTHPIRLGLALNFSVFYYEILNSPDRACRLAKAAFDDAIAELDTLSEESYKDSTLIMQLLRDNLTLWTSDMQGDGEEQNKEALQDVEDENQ

These are yes or no findings as the source states them, for the method shown. For some assays here: Binding seen in cells or lysates may run through a third protein. Some entries that bind do so weakly or less than the wild type. For some assays here: Tags and fused reporters may be left off the sequences shown.

Assay [1] addresses T1, GFP-tagged Bassoon fragment Bsn28 (GFP-Bsn28) (rat) (UniProt O88778).
T1 sequence (chain, phosphoserine at 2845 (α-pS2845 Bsn recognized GFP-Bsn28 in HEK293T lysates)): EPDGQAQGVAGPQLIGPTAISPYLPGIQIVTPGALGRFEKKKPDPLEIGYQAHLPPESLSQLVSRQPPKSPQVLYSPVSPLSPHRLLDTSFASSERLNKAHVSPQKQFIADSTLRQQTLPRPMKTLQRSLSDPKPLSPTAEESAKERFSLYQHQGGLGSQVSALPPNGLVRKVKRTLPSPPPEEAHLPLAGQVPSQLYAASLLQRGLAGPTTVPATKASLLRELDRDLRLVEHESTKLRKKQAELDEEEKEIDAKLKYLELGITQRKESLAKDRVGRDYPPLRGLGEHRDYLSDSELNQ
The experiment in a line: co-IP; HEK293T cells expressing GFP-Bsn28 or its S2845A mutant; MicroMACS anti-GFP MicroBeads; 10 mM Tris-HCl pH 8.0, 150 mM NaCl, 1% NP-40, 10% glycerol, protease inhibitors and PhosStop; blots with α-pan 14-3-3 and α-14-3-3η.

Assay [2] concerns the target T2, GFP-Bsn28^S2845A (rat) (UniProt O88778).
T2 sequence: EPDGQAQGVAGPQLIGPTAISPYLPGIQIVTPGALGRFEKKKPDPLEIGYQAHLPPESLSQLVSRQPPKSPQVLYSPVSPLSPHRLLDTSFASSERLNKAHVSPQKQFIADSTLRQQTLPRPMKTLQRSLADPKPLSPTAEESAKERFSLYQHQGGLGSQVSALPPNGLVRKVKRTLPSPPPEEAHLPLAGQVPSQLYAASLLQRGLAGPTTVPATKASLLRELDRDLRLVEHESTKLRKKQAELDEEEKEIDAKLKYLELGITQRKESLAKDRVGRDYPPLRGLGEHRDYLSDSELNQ
Described as above.

Assay [3] addresses T3, mitochondria-targeted Bassoon fragment (mitoGFP-Bsn28) (rat) (UniProt O88778).
T3 sequence: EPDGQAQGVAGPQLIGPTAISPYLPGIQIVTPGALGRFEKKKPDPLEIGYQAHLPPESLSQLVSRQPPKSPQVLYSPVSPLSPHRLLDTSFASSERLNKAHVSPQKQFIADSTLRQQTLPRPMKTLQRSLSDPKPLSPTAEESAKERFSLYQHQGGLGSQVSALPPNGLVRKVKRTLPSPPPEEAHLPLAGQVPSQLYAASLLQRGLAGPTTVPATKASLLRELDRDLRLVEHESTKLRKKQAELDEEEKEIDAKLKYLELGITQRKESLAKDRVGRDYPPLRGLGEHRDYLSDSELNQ
The experiment in a line: mito-targeting assay (recruitment to mitochondria, fluorescence microscopy); COS-7 cells co-transfected with mitochondria-targeted GFP constructs and mRFP-14-3-3 isoforms, fixed after 24 h.

Assay [4] concerns the target T4, GST-tagged 14-3-3η (GST-14-3-3η) (rat) (UniProt P68511).
T4 sequence: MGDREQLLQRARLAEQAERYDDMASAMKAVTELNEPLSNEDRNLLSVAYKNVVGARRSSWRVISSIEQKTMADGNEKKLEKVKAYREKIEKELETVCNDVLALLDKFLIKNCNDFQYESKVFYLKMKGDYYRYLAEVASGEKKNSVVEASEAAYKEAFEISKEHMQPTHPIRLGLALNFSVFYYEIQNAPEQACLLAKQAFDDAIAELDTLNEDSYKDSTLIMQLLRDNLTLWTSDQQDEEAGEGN
The experiment in a line: pull-down; 25 µg purified GST or 50 µg purified GST-14-3-3η coupled to glutathione sepharose, incubated with HEK293T cell lysates overnight at 4°C; 10 mM HEPES pH 7.5, 150 mM NaCl, 0.5% Triton-X-100, protease inhibitors and PhosStop; eluted with 10 mM glutathione; blot with α-GFP; only the target purified.

For assay [5], the target named is T5, Bassoon fragment Bsn28 (aa 2715-3013 of rat Bassoon), yeast two-hybrid bait (rat) (UniProt O88778).
T5 sequence: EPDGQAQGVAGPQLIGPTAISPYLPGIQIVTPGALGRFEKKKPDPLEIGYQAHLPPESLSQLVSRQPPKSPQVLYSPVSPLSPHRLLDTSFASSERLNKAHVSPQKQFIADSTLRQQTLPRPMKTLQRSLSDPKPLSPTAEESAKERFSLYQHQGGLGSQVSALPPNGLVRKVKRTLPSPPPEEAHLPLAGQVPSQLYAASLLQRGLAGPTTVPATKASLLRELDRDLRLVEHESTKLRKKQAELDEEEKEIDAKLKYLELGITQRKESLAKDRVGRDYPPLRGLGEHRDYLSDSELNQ
The experiment in a line: two-hybrid; Matchmaker Two-Hybrid System 3; screen of a pACT2 rat brain Matchmaker cDNA library (prey) with Bsn28 as bait.

The target in assay [6] is T6, mitoGFP-Bsn28^S2845A (rat) (UniProt O88778).
T6 sequence: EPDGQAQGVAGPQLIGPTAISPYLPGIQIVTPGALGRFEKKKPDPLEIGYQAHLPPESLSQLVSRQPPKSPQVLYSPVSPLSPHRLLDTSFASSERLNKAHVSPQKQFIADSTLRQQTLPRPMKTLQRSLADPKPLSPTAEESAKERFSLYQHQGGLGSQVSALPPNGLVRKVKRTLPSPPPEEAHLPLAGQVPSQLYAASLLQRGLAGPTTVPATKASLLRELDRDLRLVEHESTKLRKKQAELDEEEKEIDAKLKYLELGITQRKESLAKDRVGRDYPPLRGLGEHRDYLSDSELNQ
The experiment in a line: mito-targeting assay (recruitment to mitochondria, fluorescence microscopy); COS-7 cells co-transfected with mitochondria-targeted GFP constructs and mRFP-14-3-3 isoforms, fixed after 24 h.

As to “endogenous 14-3-3ε of HEK293T cells (from UniProt P62258 1-255)”, the binding entry in assay [1] is on record as “binds”; in assay [2] it was “no binding”.

For “mRFP-14-3-3ε (from UniProt P62260 1-255)”, the binding result in assay [3] is listed as “binds”.

B1: GFP-tagged Bassoon fragment Bsn28 (GFP-Bsn28) (domain or fragment, UniProt O88778 2715-3013)
chain: EPDGQAQGVAGPQLIGPTAISPYLPGIQIVTPGALGRFEKKKPDPLEIGYQAHLPPESLSQLVSRQPPKSPQVLYSPVSPLSPHRLLDTSFASSERLNKAHVSPQKQFIADSTLRQQTLPRPMKTLQRSLSDPKPLSPTAEESAKERFSLYQHQGGLGSQVSALPPNGLVRKVKRTLPSPPPEEAHLPLAGQVPSQLYAASLLQRGLAGPTTVPATKASLLRELDRDLRLVEHESTKLRKKQAELDEEEKEIDAKLKYLELGITQRKESLAKDRVGRDYPPLRGLGEHRDYLSDSELNQ
modifications: phosphoserine at 2845 (α-pS2845 Bsn recognized GFP-Bsn28 in HEK293T lysates)
For the molecule B1, the binding entry in assay [4] was “binds”.

B2: GFP-Bsn28 S2845D (domain or fragment, UniProt O88778 2715-3013)
chain: EPDGQAQGVAGPQLIGPTAISPYLPGIQIVTPGALGRFEKKKPDPLEIGYQAHLPPESLSQLVSRQPPKSPQVLYSPVSPLSPHRLLDTSFASSERLNKAHVSPQKQFIADSTLRQQTLPRPMKTLQRSLDDPKPLSPTAEESAKERFSLYQHQGGLGSQVSALPPNGLVRKVKRTLPSPPPEEAHLPLAGQVPSQLYAASLLQRGLAGPTTVPATKASLLRELDRDLRLVEHESTKLRKKQAELDEEEKEIDAKLKYLELGITQRKESLAKDRVGRDYPPLRGLGEHRDYLSDSELNQ
For B2, the binding result in assay [4] was “no binding (tested: 50 µg purified GST-14-3-3η on beads)”.

B3: GFP-Bsn28^S2845A (domain or fragment, UniProt O88778 2715-3013)
chain: EPDGQAQGVAGPQLIGPTAISPYLPGIQIVTPGALGRFEKKKPDPLEIGYQAHLPPESLSQLVSRQPPKSPQVLYSPVSPLSPHRLLDTSFASSERLNKAHVSPQKQFIADSTLRQQTLPRPMKTLQRSLADPKPLSPTAEESAKERFSLYQHQGGLGSQVSALPPNGLVRKVKRTLPSPPPEEAHLPLAGQVPSQLYAASLLQRGLAGPTTVPATKASLLRELDRDLRLVEHESTKLRKKQAELDEEEKEIDAKLKYLELGITQRKESLAKDRVGRDYPPLRGLGEHRDYLSDSELNQ
Consider B3, for which the binding result in assay [4] is “no binding (tested: 50 µg purified GST-14-3-3η on beads)”.

B4: GFP-Bsn28 S2845E (domain or fragment, UniProt O88778 2715-3013)
chain: EPDGQAQGVAGPQLIGPTAISPYLPGIQIVTPGALGRFEKKKPDPLEIGYQAHLPPESLSQLVSRQPPKSPQVLYSPVSPLSPHRLLDTSFASSERLNKAHVSPQKQFIADSTLRQQTLPRPMKTLQRSLEDPKPLSPTAEESAKERFSLYQHQGGLGSQVSALPPNGLVRKVKRTLPSPPPEEAHLPLAGQVPSQLYAASLLQRGLAGPTTVPATKASLLRELDRDLRLVEHESTKLRKKQAELDEEEKEIDAKLKYLELGITQRKESLAKDRVGRDYPPLRGLGEHRDYLSDSELNQ
With B4, the binding result in assay [4] is reported as “no binding (tested: 50 µg purified GST-14-3-3η on beads)”.

B5: mRFP-14-3-3β (protein, UniProt P35213 1-246)
chain: MTMDKSELVQKAKLAEQAERYDDMAAAMKAVTEQGHELSNEERNLLSVAYKNVVGARRSSWRVISSIEQKTERNEKKQQMGKEYREKIEAELQDICSDVLELLDKYLILNATHAESKVFYLKMKGDYFRYLSEVASGDNKQTTVSNSQQAYQEAFEISKKEMQPTHPIRLGLALNFSVFYYEILNSPEKACSLAKTAFDEAIAELDTLNEESYKDSTLIMQLLRDNLTLWTSENQGDEGDAGEGEN
Regarding B5, the binding entry in assay [3] is “binds”.

B6: mRFP-14-3-3γ (protein, UniProt P61983 1-247)
chain: MVDREQLVQKARLAEQAERYDDMAAAMKNVTELNEPLSNEERNLLSVAYKNVVGARRSSWRVISSIEQKTSADGNEKKIEMVRAYREKIEKELEAVCQDVLSLLDNYLIKNCSETQYESKVFYLKMKGDYYRYLAEVATGEKRATVVESSEKAYSEAHEISKEHMQPTHPIRLGLALNYSVFYYEIQNAPEQACHLAKTAFDDAIAELDTLNEDSYKDSTLIMQLLRDNLTLWTSDQQDDDGGEGNN
Regarding B6, the binding entry in assay [3] is “binds”.

B7: 14-3-3η, clone from the pACT2 rat brain Matchmaker cDNA library (protein, UniProt P68511 1-246)
chain: MGDREQLLQRARLAEQAERYDDMASAMKAVTELNEPLSNEDRNLLSVAYKNVVGARRSSWRVISSIEQKTMADGNEKKLEKVKAYREKIEKELETVCNDVLALLDKFLIKNCNDFQYESKVFYLKMKGDYYRYLAEVASGEKKNSVVEASEAAYKEAFEISKEHMQPTHPIRLGLALNFSVFYYEIQNAPEQACLLAKQAFDDAIAELDTLNEDSYKDSTLIMQLLRDNLTLWTSDQQDEEAGEGN
On to B7, for which, in assay [5], the binding entry is given as “binds”.

B8: endogenous 14-3-3η of HEK293T cells (protein, UniProt Q04917 1-246)
chain: MGDREQLLQRARLAEQAERYDDMASAMKAVTELNEPLSNEDRNLLSVAYKNVVGARRSSWRVISSIEQKTMADGNEKKLEKVKAYREKIEKELETVCNDVLSLLDKFLIKNCNDFQYESKVFYLKMKGDYYRYLAEVASGEKKNSVVEASEAAYKEAFEISKEQMQPTHPIRLGLALNFSVFYYEIQNAPEQACLLAKQAFDDAIAELDTLNEDSYKDSTLIMQLLRDNLTLWTSDQQDEEAGEGN
Regarding B8, the binding entry is reported as “binds” in assay [1] and “no binding” in assay [2].

B9: mRFP fusion protein of 14-3-3η (mRFP-14-3-3η) (protein, UniProt P68511 1-246)
chain: MGDREQLLQRARLAEQAERYDDMASAMKAVTELNEPLSNEDRNLLSVAYKNVVGARRSSWRVISSIEQKTMADGNEKKLEKVKAYREKIEKELETVCNDVLALLDKFLIKNCNDFQYESKVFYLKMKGDYYRYLAEVASGEKKNSVVEASEAAYKEAFEISKEHMQPTHPIRLGLALNFSVFYYEIQNAPEQACLLAKQAFDDAIAELDTLNEDSYKDSTLIMQLLRDNLTLWTSDQQDEEAGEGN
Take B9: the results for the binding result in assay [3] and in assay [6] were “binds” and “no binding”, respectively.
